Assay results published in the supplement of paper PMC3334620.
In all, about 33,000 sequences were measured (“E-score (-0.5 to 0.5)”: median about -0.035, highest 2% from about 0.35 on). The list shows a part of the results.

Molecular target: T1, Pdr3 (UniProt P33200)
T1 sequence: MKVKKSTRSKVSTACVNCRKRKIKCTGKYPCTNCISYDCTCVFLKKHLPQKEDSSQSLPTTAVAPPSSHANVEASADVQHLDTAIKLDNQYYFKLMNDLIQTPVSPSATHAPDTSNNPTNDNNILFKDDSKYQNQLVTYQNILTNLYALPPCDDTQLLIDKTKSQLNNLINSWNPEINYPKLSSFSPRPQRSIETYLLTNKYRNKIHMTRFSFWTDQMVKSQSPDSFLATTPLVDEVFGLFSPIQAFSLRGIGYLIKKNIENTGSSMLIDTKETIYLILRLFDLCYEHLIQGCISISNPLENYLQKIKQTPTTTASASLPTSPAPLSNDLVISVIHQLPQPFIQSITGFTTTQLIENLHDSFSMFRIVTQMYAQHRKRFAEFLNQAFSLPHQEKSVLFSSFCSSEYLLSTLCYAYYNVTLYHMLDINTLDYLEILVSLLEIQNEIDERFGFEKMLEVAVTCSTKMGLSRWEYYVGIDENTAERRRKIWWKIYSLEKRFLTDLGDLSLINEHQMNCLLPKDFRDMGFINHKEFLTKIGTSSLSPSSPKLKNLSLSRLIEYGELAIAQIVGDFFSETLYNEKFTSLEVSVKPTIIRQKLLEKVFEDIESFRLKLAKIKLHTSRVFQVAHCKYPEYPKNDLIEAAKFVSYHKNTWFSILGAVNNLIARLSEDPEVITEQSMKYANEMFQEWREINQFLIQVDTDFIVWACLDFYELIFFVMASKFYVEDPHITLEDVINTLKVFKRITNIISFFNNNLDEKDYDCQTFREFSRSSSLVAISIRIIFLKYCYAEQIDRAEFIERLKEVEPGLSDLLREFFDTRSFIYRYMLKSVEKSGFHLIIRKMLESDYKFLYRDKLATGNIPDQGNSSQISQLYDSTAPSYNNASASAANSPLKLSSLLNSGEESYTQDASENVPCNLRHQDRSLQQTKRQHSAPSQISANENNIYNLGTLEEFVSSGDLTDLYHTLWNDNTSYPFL
Experiment: PBM E-score (8-mer binding enrichment) (E-score (-0.5 to 0.5)); higher = stronger / more preferred TF binding; most listed sequences are background and not binding sites
Conditions: protein concentration: 200 nM; construct: GST-full length
Outline: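 Universal all-10-mer Agilent arrays, fresh or stripped once, were converted to double-stranded form by primer extension. GST-tagged yeast transcription factors from PURExpress in vitro transcription/translation, full-length or DNA-binding domain only, were applied at about 100-200 nM and detected with fluorescent anti-GST. After masliner normalisation, the Universal PBM Analysis Suite scored each ungapped eight-base word together with its reverse complement by E-score.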

| Sequence | PBM E-score |
| --- | --- |
| CCCCTCGG | 0.164 |
| ACCACGAC | -0.0488 |
| GCTTGCGA | 0.00635 |
| ATTCATTG | -0.0508 |
| CTGATCCC | 0.0105 |
| CTACATAG | -0.115 |
| GACCCGCC | 0.22 |
| ATAAGTGA | -0.0759 |
| AGCTGCCC | 0.257 |
| AGCGTAGA | -0.0782 |
| AATCAGGA | -0.0567 |
| GCCAATAC | 0.0182 |
| ATCACATG | -0.0748 |
| ACAACGGA | 0.375 |
| CCCCCTTC | -0.302 |
| CAACATTC | -0.0388 |
| TGCCACAA | 0.0308 |
| CGTTACGC | -0.1 |
| CTAAAAGC | -0.109 |
| AAATGTTC | -0.0576 |
| CTTTGAGA | -0.0374 |
| ATTCCGCA | 0.379 |
| AACCCATG | -0.0258 |
| AAGAGCAT | -0.0207 |
| ACATGGTG | -0.19 |

| Sequence | PBM E-score |
| --- | --- |
| ACGGGACC | 0.241 |
| CTCGAGGA | -0.0629 |
| ATGGCAAG | 0.0377 |
| AGTATCAG | -0.102 |
| AGCGCTTC | 0.0822 |
| CAAAATGG | 0.112 |
| CCCGAACG | 0.186 |
| TAACGGAA | 0.453 |
| CACTTGGG | -0.108 |
| ACCCGGGT | 0.446 |
| CACATAGA | -0.167 |
| ACAGATCA | 0.0817 |
| GGCGTGGA | -0.0741 |
| CACTCTCA | -0.298 |
| GAAATTAA | 0.1 |
| CCTTACGA | -0.14 |
| ATCTCTAA | 0.0104 |
| TCATAACA | -0.0698 |
| ATTTATCC | 0.235 |
| TAAAATTA | 0.025 |
| AGAACCCG | 0.111 |
| CAAGCAGG | -0.0877 |
| ACGGCCAA | 0.158 |
| CGTCTCGC | -0.119 |
| AGCAACTC | -0.0636 |

| Sequence | PBM E-score |
| --- | --- |
| AATCTGAA | -0.0156 |
| AATCTAGC | -0.288 |
| GCATCAGC | 0.0573 |
| TAGCATCA | -0.0373 |
| TCCCAAAA | -0.0463 |
| CTCCGTTC | 0.367 |
| CACAGACC | 0.151 |
| CGACCACC | 0.0539 |
| GATGTTTA | 0.0962 |
| ATAATAGA | -0.0653 |
| CCACCACC | -0.0836 |
| AATTGAAT | -0.0365 |
| CTACCACC | -0.187 |
| GTGACCCA | -0.14 |
| CGTGCACG | -0.00114 |
| AATAACGA | -0.0186 |
| CGATACCC | -0.00232 |
| AGTGTTCG | -0.0373 |
| AGACAGGC | -0.0117 |
| AAGGTCCT | -0.22 |
| ATACACGA | -0.0447 |
| CATACATA | 0.0249 |
| AATCGAGT | 0.00341 |
| ATGTTAAA | -0.0642 |
| CATTGCCC | -0.00477 |

| Sequence | PBM E-score |
| --- | --- |
| ACGGATGG | 0.289 |
| ACGAGGGC | -0.0865 |
| GCCTCATA | 0.0142 |
| AGTAATCC | 0.00373 |
| AGGGCGAG | -0.129 |
| GAAGAGTC | -0.16 |
| CCCTGATA | -0.251 |
| CGGTAAAG | 0.122 |
| CTGGACCC | -0.078 |
| ACGATCTA | -0.265 |
| ACTCAAGC | -0.00858 |
| GATCGCAC | -0.0775 |
| ACTGGTCG | -0.0903 |
| GACAGCAA | -0.044 |
| AATGAGCT | 0.00441 |
| ATCGCAAC | -0.0656 |
| AATATGCA | -0.0816 |
| ATCAGACC | 0.0876 |
| GATGTAGC | -0.192 |
| GGAAGTCC | 0.237 |
| CTGATTCA | -0.106 |
| CAGTTGGA | -0.0903 |
| GACTATCA | -0.205 |
| ATCAAAAC | -0.0437 |
| CGTCGATA | 0.154 |

| Sequence | PBM E-score |
| --- | --- |
| AAAGGCTC | -0.22 |
| ACCTCTTA | 0.213 |
| TCTCACAA | 0.0933 |
| AACTAAAC | -0.0394 |
| CGCCGGAG | 0.299 |
| ATCTAAAT | 0.126 |
| CTTCGGTC | 0.065 |
| CTTTCGCA | -0.0763 |
| CACGAGGC | -0.0528 |
| CGGCAAAA | 0.0451 |
| CGGTCGTA | 0.0889 |
| GCAAAAGC | -0.174 |
| GGGGTCCA | -0.138 |
| ACGAGGCA | -0.211 |
| CAAGGTAG | -0.0759 |
| GCCATCGA | 0.125 |
| CAGGAGGC | -0.045 |
| ACTCCTTG | -0.0261 |
| ACGCTACC | -0.183 |
| AAATACGA | -0.0616 |
| ATTTTATC | -0.0377 |
| AGAGGCCC | -0.0473 |
| AGCGATTC | -0.0275 |
| GCCAACCC | -0.0135 |
| GAGGTTAA | -0.0985 |

| Sequence | PBM E-score |
| --- | --- |
| ATCGTGAC | 0.0473 |
| CAATTACC | -0.0711 |
| ATTCTCGA | -0.0715 |
| GCTTAGTA | -0.211 |
| CCATAGTA | 0.107 |
| AGTGAACG | -0.0964 |
| CTGCTACC | -0.226 |
| GCTGTTAA | -0.185 |
| CAGTGACG | 0.0566 |
| ACGCGTTG | -0.00051 |
| CCGTCCTA | -0.0127 |
| ACAGCTAT | -0.195 |
| GTACCAAC | 0.00255 |
| ATCGAAAC | 0.0402 |
| GCCTAAAA | -0.218 |
| CCTGCGCA | -0.0974 |
| CAGGCCCA | -0.204 |
| ACGCTGAC | -0.14 |
| CTTACGCC | -0.041 |
| ATCGGGTA | 0.0685 |
| TACATCGA | -0.0326 |
| CCAGTTCG | 0.0412 |
| AGGAATCC | 0.0872 |
| TATGAAGA | 0.0594 |
| GCATTTTA | 0.198 |

| Sequence | PBM E-score |
| --- | --- |
| AAGCAATT | -0.155 |
| AGATGTGA | 0.0386 |
| CATCGACC | 0.0651 |
| GAATGATA | 0.18 |
| ACGGCACT | 0.0609 |
| AAAACTCA | 0.0356 |
| CGTGTGAG | -0.0242 |
| AAACCCTT | -0.185 |
| GATATCTA | -0.14 |
| CATCGCCA | 0.0655 |
| ACGATGTC | -0.0633 |
| AGCGTTAT | -0.208 |
| CCAAGATA | -0.131 |
| AACTGGCC | 0.0895 |
| CATGCCAG | -0.14 |
| GTTCTCTA | -0.0723 |
| CGCTTAGA | -0.189 |
| GAAGGTGC | 0.025 |
| CGCCGTGC | 0.135 |
| ACATTTAG | -0.301 |
| TCGATCGA | 0.222 |
| AATCCTGG | -0.0835 |
